The list shows a part of the results.
Tests used:
Experiment in all cases: glycan array binding signal (z-score within array); higher = stronger binding
Conditions in all cases: glycan notation: IUPAC condensed, linker removed
[1] = target: Gal(a1-3)Gal(b1-4)GlcNAc(b1-2)Man
Procedure, shortened: (§1)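 Glycan array data were curated from 3228 arrays in the Consortium for Functional Glycomics database and kept only where the protein sequence was available. Glycan names were converted to IUPAC-condensed notation, and columns mapping to the same glycan were averaged. The binding signal is a within-array Z-score, averaged across arrays of the same protein sequence at different concentrations or buffers and across linkers. Negative Z-scores can be read as non-binding.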

[2] = target: Gal(a1-3)Gal(b1-4)GlcNAc(b1-2)Man(a1-3)[Gal(a1-3)Gal(b1-4)GlcNAc(b1-2)Man(a1-6)]Man(b1-4)GlcNAc(b1-4)GlcNAc
Procedure, shortened: as §1

[3] = target: Gal(a1-3)Gal(b1-4)GlcNAc(b1-3)GalNAc
Procedure, shortened: as §1

[4] = target: Gal(a1-3)Gal(b1-4)GlcNAc(b1-6)GalNAc
Procedure, shortened: as §1

[5] = target: Gal(a1-3)Gal(b1-4)[Fuc(a1-3)]GlcNAc
Procedure, shortened: as §1

[6] = target: Gal(a1-3)Gal(b1-4)[Fuc(a1-3)]GlcNAc(b1-2)Man(a1-3)[Gal(a1-3)Gal(b1-4)[Fuc(a1-3)]GlcNAc(b1-2)Man(a1-6)]Man(b1-4)GlcNAc(b1-4)GlcNAc
Procedure, shortened: as §1

[7] = target: Gal(a1-3)GalNAc
Procedure, shortened: as §1

[8] = target: Gal(a1-3)[Gal(a1-4)]Gal(b1-4)GlcNAc
Procedure, shortened: as §1

[9] = target: Gal(a1-4)Gal(b1-3)GlcNAc(b1-2)Man(a1-3)[Gal(a1-4)Gal(b1-3)GlcNAc(b1-2)Man(a1-6)]Man(b1-4)GlcNAc(b1-4)GlcNAc
Procedure, shortened: as §1

[10] = target: Gal(a1-4)Gal(b1-4)Glc
Procedure, shortened: as §1

[11] = target: Gal(a1-4)Gal(b1-4)GlcNAc
Procedure, shortened: as §1

[12] = target: Gal(a1-4)Gal(b1-4)GlcNAc(b1-2)Man(a1-3)[Gal(a1-4)Gal(b1-4)GlcNAc(b1-2)Man(a1-6)]Man(b1-4)GlcNAc(b1-4)GlcNAc
Procedure, shortened: as §1

[13] = target: Gal(a1-4)Gal(b1-4)GlcNAc(b1-3)Gal(b1-4)Glc
Procedure, shortened: as §1

[14] = target: Gal(a1-4)GlcNAc
Procedure, shortened: as §1

[15] = target: Gal(a1-6)Glc
Procedure, shortened: as §1

[16] = target: Gal(b1-2)Gal
Procedure, shortened: as §1

[17] = target: Gal(b1-3)Gal
Procedure, shortened: as §1

[18] = target: Gal(b1-3)Gal(b1-4)GlcNAc
Procedure, shortened: as §1

[19] = target: Gal(b1-3)GalNAc
Procedure, shortened: as §1

[20] = target: Gal(b1-3)GalNAc(a1-3)[Fuc(a1-2)]Gal(b1-4)Glc
Procedure, shortened: as §1

[21] = target: Gal(b1-3)GalNAc(a1-3)[Fuc(a1-2)]Gal(b1-4)GlcNAc
Procedure, shortened: as §1

[22] = target: Gal(b1-3)GalNAc(b1-3)Gal
Procedure, shortened: as §1

[23] = target: Gal(b1-3)GalNAc(b1-3)Gal(a1-4)Gal(b1-4)Glc
Procedure, shortened: as §1

[24] = target: Gal(b1-3)GalNAc(b1-4)Gal(b1-4)Glc
Procedure, shortened: as §1

[25] = target: Gal(b1-3)GalNAc(b1-4)[Neu5Ac(a2-3)]Gal(b1-4)Glc
Procedure, shortened: as §1

[26] = target: Gal(b1-3)GlcNAc
Procedure, shortened: as §1

[27] = target: Gal(b1-3)GlcNAc(a1-3)Gal(b1-4)GlcNAc
Procedure, shortened: as §1

[28] = target: Gal(b1-3)GlcNAc(a1-6)Gal(b1-4)GlcNAc
Procedure, shortened: as §1

[29] = target: Gal(b1-3)GlcNAc(b1-2)Man
Procedure, shortened: as §1

[30] = target: Gal(b1-3)GlcNAc(b1-2)Man(a1-3)[Gal(b1-3)GlcNAc(b1-2)Man(a1-6)]Man(b1-4)GlcNAc(b1-4)GlcNAc
Procedure, shortened: as §1

[31] = target: Gal(b1-3)GlcNAc(b1-2)Man(a1-3)[Gal(b1-3)GlcNAc(b1-2)Man(a1-6)]Man(b1-4)GlcNAc(b1-4)[Fuc(a1-6)]GlcNAc
Procedure, shortened: as §1

[32] = target: Gal(b1-3)GlcNAc(b1-2)Man(a1-3)[GlcNAc(b1-4)][Gal(b1-3)GlcNAc(b1-2)Man(a1-6)]Man(b1-4)GlcNAc(b1-4)GlcNAc
Procedure, shortened: as §1

[33] = target: Gal(b1-3)GlcNAc(b1-2)[Gal(b1-3)GlcNAc(b1-6)]Man(a1-6)[Gal(b1-3)GlcNAc(b1-2)Man(a1-3)]Man(b1-4)GlcNAc(b1-4)GlcNAc
Procedure, shortened: as §1

[34] = target: Gal(b1-3)GlcNAc(b1-3)Gal(b1-3)GlcNAc
Procedure, shortened: as §1

[35] = target: Gal(b1-3)GlcNAc(b1-3)Gal(b1-4)Glc
Procedure, shortened: as §1

[36] = target: Gal(b1-3)GlcNAc(b1-3)Gal(b1-4)GlcNAc
Procedure, shortened: as §1

[37] = target: Gal(b1-3)GlcNAc(b1-3)Gal(b1-4)GlcNAc(b1-2)Man(a1-3)[Gal(b1-3)GlcNAc(b1-3)Gal(b1-4)GlcNAc(b1-2)Man(a1-6)]Man(b1-4)GlcNAc(b1-4)GlcNAc
Procedure, shortened: as §1

B1: PX9937F-bfa-516-16-516 (Bacteroides fragilis) (protein)
chain: LDIDPTSSIADSNYWKTEAQFSTFNVGLHALLRECSFNFFLLGEPRADIYGDVPFGGEATQGMERLPFNTINKENTGISNFAGMYKVINQINLMIAKTKETTVLSEAGKNYYLGEAYGMRAYLYFHLLRSWGDVILYLDYTNGASLDLSNLSKAASPAEEVMKQIKEDITASEKGFGSDYSFKYGRYYWSMAATQMLKGEVYLWSGRQMGGGTADYTTAKTALQSIVSNANVSLQDDFSKVFAYNNKDNSEIIFSIRNAKDEYNMWDDRFRQNLVPQQAYMTSTYCNKEGVSFKDLPEGQLNGLIRLQIRYDLYNKAFRDGDTRKDASMTAVYQKQQDGTVKYIAPFCNKYQGVLLDGASQRSFLNDYPIYRYADCLLLLAEAKALLGEDPTAEINQVRERAYGKEFFEANKATLAYPNDKGDFYTDNKYMSGDEDPLEAILKERMREFMFEGKRWYDLRLLGADYVTKRTSAVATRLLWPINESVLTDNPALKQTPGYQN
glycan array binding signal (z-score) [1]: -0.213
glycan array binding signal (z-score) [2]: 0.13
glycan array binding signal (z-score) [3]: 0.853
glycan array binding signal (z-score) [4]: 0.066
glycan array binding signal (z-score) [5]: -0.34
glycan array binding signal (z-score) [6]: 0.064
glycan array binding signal (z-score) [7]: -0.268
glycan array binding signal (z-score) [8]: 0.006
glycan array binding signal (z-score) [9]: -0.253
glycan array binding signal (z-score) [10]: -0.235
glycan array binding signal (z-score) [11]: -0.077
glycan array binding signal (z-score) [12]: 0.21
glycan array binding signal (z-score) [13]: -0.248
glycan array binding signal (z-score) [14]: -0.107
glycan array binding signal (z-score) [15]: -0.074
glycan array binding signal (z-score) [16]: -0.196
glycan array binding signal (z-score) [17]: -0.15
glycan array binding signal (z-score) [18]: -0.229
glycan array binding signal (z-score) [19]: -0.035
glycan array binding signal (z-score) [20]: -0.339
glycan array binding signal (z-score) [21]: -0.198
glycan array binding signal (z-score) [22]: -0.083
glycan array binding signal (z-score) [23]: -0.322
glycan array binding signal (z-score) [24]: -0.093
glycan array binding signal (z-score) [25]: -0.231
glycan array binding signal (z-score) [26]: -0.207
glycan array binding signal (z-score) [27]: 0.755
glycan array binding signal (z-score) [28]: -0.245
glycan array binding signal (z-score) [29]: -0.2
glycan array binding signal (z-score) [30]: -0.047
glycan array binding signal (z-score) [31]: 0.833
glycan array binding signal (z-score) [32]: 0.179
glycan array binding signal (z-score) [33]: -0.137
glycan array binding signal (z-score) [34]: -0.041
glycan array binding signal (z-score) [35]: -0.072
glycan array binding signal (z-score) [36]: -0.402
glycan array binding signal (z-score) [37]: -0.167

From the supplement of paper PMC8728848
